The target of assay [1] is T1, monomeric huBDCA2 ectodomain (human, UniProt Q8WTT0 45-213).
T1 construct: Prepared by proteolytic cleavage of the purified muIgG2a Fc-huBDCA2 fusion protein (pEAG2423); also called human BDCA2 ectodomain; human BDCA2 ECD
T1 sequence: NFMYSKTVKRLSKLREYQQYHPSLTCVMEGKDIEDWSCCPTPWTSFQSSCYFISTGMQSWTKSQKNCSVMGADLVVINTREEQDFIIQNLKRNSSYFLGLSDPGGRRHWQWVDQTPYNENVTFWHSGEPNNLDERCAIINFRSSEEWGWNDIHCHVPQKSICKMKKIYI
In words: Octet, mAb from conditioned medium on anti-human Fc tips, monomeric huBDCA2 in solution. The method, then: The monomeric huBDCA2 ectodomain was prepared by proteolytic cleavage from the purified muIgG2a Fc-huBDCA2 fusion protein (relevant plasmid: pEAG2423). Antibodies from conditioned medium from transiently transfected cells were bound to anti-human Fc tips, and then monomeric huBDCA2 was flowed over the Octet tips, to examine binding and dissociation.
Background: BLI is a label-free optical method that tracks binding on a fibre tip over time.

In assay [2] the target is T2, cynomolgus monkey BDCA2 (full-length, cell surface, E73 SNP form) (cynomolgus monkey, UniProt Q8WTT0 1-213 (human entry)).
T2 construct: also called cyno BDCA2; surface cynomolgus monkey BDCA2
T2 chain: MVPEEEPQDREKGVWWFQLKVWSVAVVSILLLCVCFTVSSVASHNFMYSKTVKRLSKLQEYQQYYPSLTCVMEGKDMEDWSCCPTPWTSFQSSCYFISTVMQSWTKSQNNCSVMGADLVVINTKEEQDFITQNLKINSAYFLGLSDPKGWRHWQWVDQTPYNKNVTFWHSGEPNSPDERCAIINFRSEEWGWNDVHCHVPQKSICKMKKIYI
Put plainly: direct binding FACS, conditioned medium on CHO cells co-expressing cynomolgus BDCA2 and FcεRIγ; column C (midpoint) of the printed 4-P fit, X in ng/ml; A 2.08, B 0.737, D 8.51E+03, R^2 1; the fit is extrapolated: the highest point drawn is at about 150 ng/ml with MFI about 46, no plateau. The method, then:
(§1) Conditioned medium was assayed by direct binding FACS on stably transfected DG44 CHO cells co-expressing full-length BDCA2 and FcεRIγ cDNAs (human or cynomolgus monkey), (relevant expression vectors are human BDCA2/FcεRIγ: pEAG2456, cyno BDCA2/FcεRIγ: pEAG2668).

Assay [3] has as its target T3, human BDCA2 (full-length, cell surface) (human, UniProt Q8WTT0 1-213).
T3 construct: also called huBDCA2; surface human BDCA2
T3 sequence: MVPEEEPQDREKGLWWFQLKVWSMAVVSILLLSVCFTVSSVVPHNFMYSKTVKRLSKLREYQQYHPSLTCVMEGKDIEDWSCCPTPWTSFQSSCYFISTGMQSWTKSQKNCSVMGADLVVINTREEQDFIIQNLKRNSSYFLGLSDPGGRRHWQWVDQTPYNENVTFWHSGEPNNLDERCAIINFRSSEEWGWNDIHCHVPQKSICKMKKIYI
Put plainly: direct binding FACS, conditioned medium on CHO cells co-expressing human BDCA2 and FcεRIγ; column C (midpoint) of the printed 4-P fit, X in ng/ml; A 4.51, B 0.716, D 599, R^2 1; the fit is extrapolated: the highest point drawn is at about 150 ng/ml with MFI about 63, no plateau. The method, then: as §1

B1: ch24F4-huIgG1, kappa mAb (antibody)
heavy: DVKLVESGGGLVKPGGSLKLSCAASGFTFSTYTMSWVRQTPEKRLEWVATISPGDSFGYYYPDSVQGRFTISRDNAKNTLFLQMSSLKSEDTAMYYCTRDIYYNYGAWFAYWGQGTLVTVSA[human IgG1 constant region not written out]
light: DIVLTQSPASLAVSLGQRATISCKASQSVDYDGDSYMNWYQQKPGQPPKLLIYAASTLESGVPARFSGSGSGTDFTLNIHPVEEEDAATYYCQQCNEDPRTFGGGTKLEIKRTVAAPSVFIFPPSDEQLKSGTASVVCLLNNFYPREAKVQWKVDNALQSGNSQESVTEQDSKDSTYSLSSTLTLSKADYEKHKVYACEVTHQGLSSPVTKSFNRGEC
notes: pYL672/pYL671; also called wildtype ch24F4; Chimeric 24F4
A word on the Kd: it is the constant that tells how readily two partners part at equilibrium. By koff is commonly meant the first-order rate constant of dissociation. For orientation: kon means a measure of how fast the partners come together. A word on the EC50: it is the concentration needed to bring the measured effect to its halfway point. Regarding B1, in assay [1], binding was characterised by a dissociation constant (Kd) of 2.17 nM, the koff was found to be 0.00349 s⁻¹ and the kon was determined as 1.61e+06 M⁻¹ s⁻¹. In addition, in assay [2], the EC50 was 200 µg/mL. Further, the concentration giving a half-maximal response (EC50) in assay [3] is 3.52 µg/mL.

(Values after patent US20180362652A1 (Biogen, published 2018).)
